# Laboratory results taken from the supplement of paper PMC8728848.
# This is one part of the list.
# B1: HPL (Tachypleus tridentatus) (protein)
# chain: MEDDCTCVTDRSLEGKLMKHPSTPAVYQILDGCRRLVPNPPTYNNIYKNWECIQSNILEKLLCKCDSLSNGAELIKGSGDTVYLLSNGVKRPIADPETFNGFCFDWNKIKTYSDIVINSLSTGPIIIIKHHHHHH
# How the values were obtained:
# Test in all cases: glycan array binding signal (z-score within array); higher = stronger binding
# Conditions in all cases: glycan notation: IUPAC condensed, linker removed
# [1] = molecular target: Gal(b1-4)GlcNAc(b1-3)Gal(b1-4)GlcNAc(b1-3)Gal(b1-4)GlcNAc(b1-3)Gal(b1-4)GlcNAc(b1-2)Man(a1-3)[Gal(b1-4)GlcNAc(b1-3)Gal(b1-4)GlcNAc(b1-3)Gal(b1-4)GlcNAc(b1-3)Gal(b1-4)GlcNAc(b1-2)Man(a1-6)]Man(b1-4)GlcNAc(b1-4)[Fuc(a1-6)]GlcNAc
# Procedure, shortened: (§1)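 The binding signal is a Z-score computed within each array and averaged over linkers. Arrays of the same protein sequence at different concentrations or buffers were also averaged together. Data originate from 3228 arrays in the Consortium for Functional Glycomics database, kept only where the protein sequence was available.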
# [2] = molecular target: Gal(b1-4)GlcNAc(b1-3)Gal(b1-4)GlcNAc(b1-3)Gal(b1-4)GlcNAc(b1-3)Gal(b1-4)GlcNAc(b1-2)[Gal(b1-4)GlcNAc(b1-3)Gal(b1-4)GlcNAc(b1-3)Gal(b1-4)GlcNAc(b1-3)Gal(b1-4)GlcNAc(b1-6)]Man(a1-6)[Gal(b1-4)GlcNAc(b1-3)Gal(b1-4)GlcNAc(b1-3)Gal(b1-4)GlcNAc(b1-3)Gal(b1-4)GlcNAc(b1-2)Man(a1-3)]Man(b1-4)GlcNAc(b1-4)[Fuc(a1-6)]GlcNAc
# Procedure, shortened: as §1
# [3] = molecular target: Gal(b1-4)GlcNAc(b1-3)Gal(b1-4)GlcNAc(b1-3)Gal(b1-4)GlcNAc(b1-3)Gal(b1-4)GlcNAc(b1-3)Gal(b1-4)GlcNAc(b1-2)Man(a1-3)[Gal(b1-4)GlcNAc(b1-3)Gal(b1-4)GlcNAc(b1-3)Gal(b1-4)GlcNAc(b1-3)Gal(b1-4)GlcNAc(b1-3)Gal(b1-4)GlcNAc(b1-2)Man(a1-6)]Man(b1-4)GlcNAc(b1-4)GlcNAc
# Procedure, shortened: as §1
# [4] = molecular target: Gal(b1-4)GlcNAc(b1-3)Gal(b1-4)GlcNAc(b1-3)Gal(b1-4)GlcNAc(b1-3)Gal(b1-4)GlcNAc(b1-3)Gal(b1-4)GlcNAc(b1-2)Man(a1-3)[Gal(b1-4)GlcNAc(b1-3)Gal(b1-4)GlcNAc(b1-3)Gal(b1-4)GlcNAc(b1-3)Gal(b1-4)GlcNAc(b1-3)Gal(b1-4)GlcNAc(b1-2)Man(a1-6)]Man(b1-4)GlcNAc(b1-4)[Fuc(a1-6)]GlcNAc
# Procedure, shortened: as §1
# [5] = molecular target: Gal(b1-4)GlcNAc(b1-3)Gal(b1-4)GlcNAc(b1-3)Gal(b1-4)GlcNAc(b1-3)Gal(b1-4)GlcNAc(b1-3)Gal(b1-4)GlcNAc(b1-2)[Gal(b1-4)GlcNAc(b1-3)Gal(b1-4)GlcNAc(b1-3)Gal(b1-4)GlcNAc(b1-3)Gal(b1-4)GlcNAc(b1-3)Gal(b1-4)GlcNAc(b1-6)]Man(a1-6)[Gal(b1-4)GlcNAc(b1-3)Gal(b1-4)GlcNAc(b1-3)Gal(b1-4)GlcNAc(b1-3)Gal(b1-4)GlcNAc(b1-3)Gal(b1-4)GlcNAc(b1-2)Man(a1-3)]Man(b1-4)GlcNAc(b1-4)[Fuc(a1-6)]GlcNAc
# Procedure, shortened: as §1
# [6] = molecular target: Gal(b1-4)GlcNAc(b1-3)Gal(b1-4)GlcNAc(b1-3)Gal(b1-4)GlcNAc(b1-3)Gal(b1-4)GlcNAc(b1-3)Gal(b1-4)GlcNAc(b1-3)Gal(b1-4)GlcNAc(b1-2)Man(a1-3)[Gal(b1-4)GlcNAc(b1-3)Gal(b1-4)GlcNAc(b1-3)Gal(b1-4)GlcNAc(b1-3)Gal(b1-4)GlcNAc(b1-3)Gal(b1-4)GlcNAc(b1-3)Gal(b1-4)GlcNAc(b1-2)Man(a1-6)]Man(b1-4)GlcNAc(b1-4)GlcNAc
# Procedure, shortened: as §1
# [7] = molecular target: Gal(b1-4)GlcNAc(b1-3)Gal(b1-4)GlcNAc(b1-3)GalNAc
# Procedure, shortened: as §1
# [8] = molecular target: Gal(b1-4)GlcNAc(b1-3)Gal(b1-4)GlcNAc(b1-3)[Gal(b1-4)GlcNAc(b1-3)Gal(b1-4)GlcNAc(b1-6)]GalNAc
# Procedure, shortened: as §1
# [9] = molecular target: Gal(b1-4)GlcNAc(b1-3)Gal(b1-4)GlcNAc(b1-6)[Gal(b1-3)]GalNAc
# Procedure, shortened: as §1
# [10] = molecular target: Gal(b1-4)GlcNAc(b1-3)Gal(b1-4)[Fuc(a1-3)]GlcNAc(b1-3)Gal(b1-4)[Fuc(a1-3)]GlcNAc
# Procedure, shortened: as §1
# [11] = molecular target: Gal(b1-4)GlcNAc(b1-3)GalNAc
# Procedure, shortened: as §1
# [12] = molecular target: Gal(b1-4)GlcNAc(b1-3)[Fuc(a1-3)GlcNAc(b1-6)]Gal(b1-4)Glc
# Procedure, shortened: as §1
# [13] = molecular target: Gal(b1-4)GlcNAc(b1-3)[Gal(b1-4)GlcNAc(b1-6)]Gal(b1-4)GlcNAc
# Procedure, shortened: as §1
# [14] = molecular target: Gal(b1-4)GlcNAc(b1-3)[GlcNAc(b1-6)]Gal(b1-4)GlcNAc
# Procedure, shortened: as §1
# [15] = molecular target: Gal(b1-4)GlcNAc(b1-6)Gal(b1-4)GlcNAc
# Procedure, shortened: as §1
# [16] = molecular target: Gal(b1-4)GlcNAc(b1-6)GalNAc
# Procedure, shortened: as §1
# [17] = molecular target: Gal(b1-4)GlcNAc(b1-6)[Gal(b1-3)]GalNAc
# Procedure, shortened: as §1
# [18] = molecular target: Gal(b1-4)GlcNAc(b1-6)[Gal(b1-4)GlcNAc(b1-3)]GalNAc
# Procedure, shortened: as §1
# Gal(b1-4)GlcNAc6P = molecular target: Gal(b1-4)GlcNAc6P
# Procedure, shortened: as §1
# Gal(b1-6)Gal = molecular target: Gal(b1-6)Gal
# Procedure, shortened: as §1
# Gal3S(b1-3)GalNAc = molecular target: Gal3S(b1-3)GalNAc
# Procedure, shortened: as §1
# Gal3S(b1-3)GlcNAc = molecular target: Gal3S(b1-3)GlcNAc
# Procedure, shortened: as §1
# [19] = molecular target: Gal3S(b1-3)[Fuc(a1-4)]GlcNAc
# Procedure, shortened: as §1
binder,measurement,setting,value
B1,glycan array binding signal (z-score),[1],-0.001
same,glycan array binding signal (z-score),[2],0.091
same,glycan array binding signal (z-score),[3],0.129
same,glycan array binding signal (z-score),[4],0.917
same,glycan array binding signal (z-score),[5],0.296
same,glycan array binding signal (z-score),[6],-0.206
same,glycan array binding signal (z-score),[7],0.049
same,glycan array binding signal (z-score),[8],0.221
same,glycan array binding signal (z-score),[9],0.388
same,glycan array binding signal (z-score),[10],-0.174
same,glycan array binding signal (z-score),[11],-0.245
same,glycan array binding signal (z-score),[12],-0.376
same,glycan array binding signal (z-score),[13],-0.277
same,glycan array binding signal (z-score),[14],0.962
same,glycan array binding signal (z-score),[15],-0.232
same,glycan array binding signal (z-score),[16],-0.074
same,glycan array binding signal (z-score),[17],-0.066
same,glycan array binding signal (z-score),[18],-0.188
same,glycan array binding signal (z-score),Gal(b1-4)GlcNAc6P,-0.16
same,glycan array binding signal (z-score),Gal(b1-6)Gal,-0.048
same,glycan array binding signal (z-score),Gal3S(b1-3)GalNAc,-0.22
same,glycan array binding signal (z-score),Gal3S(b1-3)GlcNAc,-0.3
same,glycan array binding signal (z-score),[19],-0.123
